Results reported in PubChem BioAssay AID488969 (Vanderbilt High Throughput Screening Facility, 2010).
Whole data set: some 110,000 compounds, median “z-score” near -0.1, cut for the highest 2% near 2. The list shows a part of the results. Activity calls are given as the source filed them.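 How the source made its calls: active means z-score in the third read window above 3 or below -3; inactive means the rest.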

These molecules were tested against Metabotropic glutamate receptor 8 (Rattus norvegicus) (UniProt P70579) (assay: mGluR8 Gi/Go-coupled signaling modulation – cell-based, rat, thallium flux, HTS, primary screen (AID 488969)). Settings: HEK293 rat mGluR8, GIRK (G protein-gated inwardly rectifying potassium channel) thallium flux, FluoZin2; at 10 µM; stronger effect = higher value; submaximal glutamate (EC20) added with thallium.
Sequence of UniProt P70579 (P70579 whole entry, looked up): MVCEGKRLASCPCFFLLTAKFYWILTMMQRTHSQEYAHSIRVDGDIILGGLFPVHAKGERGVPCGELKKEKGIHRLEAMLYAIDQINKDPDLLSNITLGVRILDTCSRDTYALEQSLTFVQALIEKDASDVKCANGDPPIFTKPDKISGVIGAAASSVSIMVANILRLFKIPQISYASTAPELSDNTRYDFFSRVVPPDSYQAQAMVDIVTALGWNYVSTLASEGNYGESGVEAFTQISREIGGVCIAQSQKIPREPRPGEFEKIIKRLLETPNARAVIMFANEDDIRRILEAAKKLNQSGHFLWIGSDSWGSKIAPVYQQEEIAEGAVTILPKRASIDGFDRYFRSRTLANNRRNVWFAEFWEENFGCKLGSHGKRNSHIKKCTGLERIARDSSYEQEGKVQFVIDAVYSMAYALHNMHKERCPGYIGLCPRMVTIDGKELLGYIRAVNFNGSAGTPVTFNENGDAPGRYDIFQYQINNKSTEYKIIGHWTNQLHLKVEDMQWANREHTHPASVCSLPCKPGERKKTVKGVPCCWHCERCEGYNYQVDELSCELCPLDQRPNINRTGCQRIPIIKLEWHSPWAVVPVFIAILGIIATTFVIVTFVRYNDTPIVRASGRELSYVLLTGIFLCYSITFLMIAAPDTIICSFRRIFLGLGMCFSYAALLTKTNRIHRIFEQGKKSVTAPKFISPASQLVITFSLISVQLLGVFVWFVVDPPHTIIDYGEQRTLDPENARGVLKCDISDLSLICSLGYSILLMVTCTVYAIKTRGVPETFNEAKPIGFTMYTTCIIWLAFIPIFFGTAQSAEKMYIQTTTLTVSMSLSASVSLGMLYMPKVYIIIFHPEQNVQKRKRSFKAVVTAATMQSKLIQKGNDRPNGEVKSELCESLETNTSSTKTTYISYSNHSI

SMILES	z-score
COc1ccc(S(=O)(=O)NCc2csc(-c3cccnc3)n2)cc1	-0.168
Cc1cccc(/C=N\Nc2nnc(-c3ccccc3)c(=O)[nH]2)c1	-0.000414
Cc1ccc(S(=O)(=O)NNC(=O)c2cc3cc4ccccc4nc3s2)cc1	0.00914
C(#CCN1CCOCC1)COCCOC(c1ccccc1)c1ccccc1	-0.257
S=C(NCc1ccc(Cl)cc1)NC12CC3CC(CC(C3)C1)C2	0.029
CCOC(=O)c1c(N)ssc1=S	0.129
CNCCCCOc1ccccc1-c1ccccc1	-0.0928
O=C(NC1CCCC1)C(c1ccsc1)N(CCc1ccccc1)C(=O)Cc1cccs1 (centres undefined)	-0.222
CCC(=O)NCCc1nc2ccccc2n1Cc1ccccc1	-0.29
Cc1ccc(C(=O)Nc2ccc(O)cc2C(=O)O)cc1	-0.517
CCc1ccccc1NC(=O)CSc1nc2c(c(-c3ccco3)c1C#N)CCCC2	0.16
O=[N+]([O-])c1ccc(O)c(C=Nc2ccc3c(c2)OCCO3)c1	0.193
O=C(O)C1C2C=CC(C2)C1C(=O)Nc1nccs1 (centres undefined)	-0.306
C=CCOn1c(=O)c(-c2ccc(OC)cc2)[n+]([O-])c2ccccc21	-0.0769
Cc1cccc(N2C(=O)CS/C2=N\NC(=O)c2ccc(Cl)cc2)c1C	active: 3.96
CCn1c(SCC(=O)c2ccc(NC(C)=O)c(OC)c2)nnc1-c1ccc(NS(C)(=O)=O)cc1	-0.0548
CCOc1ccc(-c2ccc(SCC(=O)N3CCN(c4ccccc4)CC3)nn2)cc1	-0.0827
CC(=O)N/C(=C\c1ccccc1)C(=O)NCC(=O)O	-0.256
Cc1ccc(OCCN2C(=O)S/C(=C\c3ccc(C)o3)C2=O)cc1	-0.112
COc1ccc(NC(=O)C(CC(C)C)NS(=O)(=O)c2ccc3c(c2)CCN3C(C)=O)cc1OC (centres undefined)	0.312
Cc1ccc(CC2CC(=O)N(c3ccc4c(c3)OCCO4)C2=O)cc1 (centres undefined)	0.11
CCn1nnnc1SCC(=O)Nc1cccc(NC(C)=O)c1	0.0385

SMILES	z-score
Cc1cc(Cl)ccc1NC(=S)NCc1ccco1	-0.137
CSCCC(NC(=O)c1ccco1)C(=O)NCc1ccc(F)cc1 (centres undefined)	-0.632
CC(=O)Nc1ccc(Sc2ncccc2C(=O)Nc2cc(Cl)cc(Cl)c2)cn1	0.0331
COc1ccc(C(=O)NNC(=O)CN2CCC(n3nnc4cc(C(F)(F)F)ccc43)CC2)cc1	0.177
CCN(CC)CCN1C(=O)C(=O)/C(=C(/O)c2ccccc2)C1c1ccccc1F (centres undefined)	1.55
COc1ccccc1OCC(=O)NCc1cccs1	-0.509
CCOC(=O)c1c(N)nn(C(=O)C(C)C)c1-c1ccc(OC)cc1	-0.515
COc1cccc(NC(=O)CNC(=O)c2ccccc2)c1	-0.0963
CCCCOc1ccc(-c2cn3ccccc3n2)cc1[N+](=O)[O-]	-0.66
CC1CCc2c(sc(Nc3nc4c(F)cccc4s3)c2C(N)=O)C1 (centres undefined)	1.42
CCn1c(N2CCN(C(=S)NCC(C)C)CC2)nc2ccccc21	-0.148
Cc1ccc(-c2nnc(SCC(=O)OC(C)C)n2N)cc1	-0.186
CCn1ncc(C2=NOC(C(=O)Nc3c(C)n(C)n(-c4ccccc4)c3=O)C2)c1C (centres undefined)	-0.0873
O=C(CN1CCC(NC(=O)c2ccccc2F)CC1)NCc1ccc(F)cc1	0.34
O=C1CCCC2(O)C1C(c1cccc(Br)c1)NC(=O)N2Cc1ccccc1 (centres undefined)	-0.114
CN(CC(=O)NCc1cccs1)S(=O)(=O)c1cccc2cccnc12	-0.186
CCOC(=O)c1sc(NC(=S)NC(=O)C2CCCC2)cc1C	-0.307
Clc1ccc(OCc2nc(-c3ccccn3)no2)c(Br)c1	0.419
COC(=O)c1ccc(N=NNc2ccccc2)cc1	-0.163
Nc1c(C(=O)NCc2ccco2)sc2nc3c(cc12)C(=O)CCC3	-0.541
CC(C)NC(=O)c1ccccc1NC(=O)Cc1ccc(Cl)cc1	0.535
C=CCn1c(SCc2ccc(Cl)c(Cl)c2)nnc1C(CO)NC(=O)c1ccc(OC)cc1 (centres undefined)	0.0847

SMILES	z-score
COc1ccc(S(=O)(=O)N2CCN(c3cccc(C)c3C)CC2)cc1	-0.658
Cc1onc(-c2ccccc2)c1C(=O)Nc1nnc(-c2ccncc2)s1	-0.00751
Cc1cc(C(C)(C)C)cc(C)c1N	-0.199
Cc1cc(C)c(S(=O)(=O)N2CCN=C2c2ccccc2)c(C)c1	-0.118
Cn1cc(C(=O)c2ccc(Cl)cc2Cl)cc1C(=O)N/N=C(\N)COc1cccc(C(F)(F)F)c1	-0.423
NC(=O)c1ccccc1N/C=C/C(=O)c1ccco1	-0.526
COC(=O)c1cccc(CSc2nc3ccccc3[nH]2)c1	0.475
CCn1c(=N)c(C(N)=O)cc2c(=O)n3cccc(C)c3nc21	-1.13
CC(C)NC(=O)C1(c2ccccc2)CCOCC1	-0.0416
Cc1ccc(-c2ccc(/C=N\NC(=O)C3C(=O)NCC3c3ccccc3)o2)cc1Cl (centres undefined)	-0.12
c1ccc(COc2ccc(OCCCn3cncn3)cc2)cc1	-0.0312
CCOC(=O)C1(C)NC(c2ccco2)C2C(=O)N(c3ccc(C)cc3)C(=O)C21 (centres undefined)	0.153
CCCN=C(N)/C(C(=O)OCC)=C(\O)c1ccc(OC)cc1	-0.155
COc1ccc(-c2noc(-c3ccc(Br)o3)n2)cc1OC	0.677
COc1cc(/C=C(/C#N)C(=O)NCCc2c[nH]c3ccccc23)ccc1OCc1ccccc1F	-0.542
O=C(NN=C1c2ccccc2-c2ccccc21)c1ccccc1Br	active: 5.82
Cc1nn(-c2c(Cl)cc(Cl)cc2Cl)c(=O)c2ccccc12	0.0211
CCOC(=O)/C(=N/Nc1ccccc1)N1CCCc2ccccc21	-0.0248
CCCNC(=O)c1cc2c(C(F)(F)F)nn(C)c2s1	-0.0653
Cc1cc(C)n(-c2nc(Nc3ccccc3C(F)(F)F)nc(-n3nc(C)cc3C)n2)n1	0.767
CCOC(=O)N1CCC(NC(=O)c2cc3c(C)nc4ccccc4c3o2)CC1	-0.445
CN1CCN(C(=O)c2cc3nc(-c4ccc(Cl)cc4)cc(C(F)(F)F)n3n2)CC1	-0.381

SMILES	z-score
CN(C)S(=O)(=O)c1cccc(NC(=O)CN2C(=O)C3C4C=CC(C4)C3C2=O)c1 (centres undefined)	0.514
Cc1cc(C)cc(N2CCCC2=O)c1	-0.193
COc1ccc(OCc2ccc(C(=O)N3CCOCC3)cc2)cc1	0.414
O=C(CSc1nc2c(sc3ccccc32)c(=O)n1Cc1ccccc1)NCC1CCCO1 (centres undefined)	0.199
Cc1ccc(Cl)cc1NS(=O)(=O)c1c(C)[nH]c(=O)[nH]c1=O	-1.66
CCN(c1ccccc1)S(=O)(=O)c1ccc(Cl)c(NC(=O)COC(=O)c2cccc(OC)c2O)c1	-0.188
CN(C)S(=O)(=O)c1ccc(C(=O)OCC(=O)c2ccc(OC(F)F)cc2OC(F)F)cc1	0.933
COc1ccc(-c2nc3n(c(=O)c2C#N)CCCS3)cc1	-0.372
COc1cccc(-c2csc(NC(=O)Oc3ccccc3)n2)c1	-0.144
Cc1ccc(C)c(NC(=O)Cn2nc(-c3ccccc3)nc2-c2ccccc2)c1	-0.13
CCOc1cc(S(=O)(=O)NCc2ccccn2)ccc1Cl	0.361
O=C(CN1C(=O)CCC1=O)Nc1nc(-c2ccc(Oc3ccccc3)cc2)cs1	-0.229
CCCn1nnc2ccccc2c1=O	0.262
CCCc1cc(=O)[nH]c(SCC(=O)N2CCN(c3ccccc3)CC2)n1	-0.562
CC(C)NC(=O)c1ccc(-c2ccccc2C(F)(F)F)o1	-0.199
C[N+]1(C2CCC3CCCC2C3O)CCCC1 (centres undefined)	-0.0417
O=C1c2ccccc2-c2c1nc1c([n+]2[O-])CCCC1	-0.0761
O=[N+]([O-])c1ccccc1CNC(Cc1ccccc1)c1ccccc1 (centres undefined)	-0.302
CN=Cc1sc2ccccc2c1O	0.0625
CN(CCC#N)C(=O)CSc1ncnc2sc(-c3ccccc3)cc12	active: 8.2
COc1ccc(-c2ccc3c(N)c(C(=O)c4ccc(OC)c(OC)c4)sc3n2)cc1	-0.324
COC(=O)c1c(-c2ccccc2)csc1NC(=O)c1c(-c2ccccc2)noc1C	0.119

SMILES	z-score
Cc1cccc(NC(=O)CSc2nc3[nH]ncc3c(=O)[nH]2)c1	-0.381
O=C(CNS(=O)(=O)c1ccc(Cl)cc1)OCC(=O)N1CCCc2ccccc21	-0.297
COc1cccc(-c2cc(C(F)(F)F)nc(-n3cncn3)n2)c1	-0.1
O=C(c1ccc(Cl)cc1)c1cnc(Nc2ccccc2)s1	0.124
O=C(OCCN1CCN(c2ncc(C(F)(F)F)cc2Cl)CC1)c1ccc(Cl)cc1	-0.0679
O=C1c2ccccc2NC(c2ccc(Cl)cc2Cl)N1Cc1ccccc1 (centres undefined)	0.145
CN(C)c1nn(C(=O)Nc2cccc(C(F)(F)F)c2)cc1-c1ccccc1	0.254
O=C(CN1CCN(C(=O)c2ccco2)CC1)Nc1ccc2c(c1)OCO2	0.0955
COc1cc(CN2CCC(C(=O)NC3CCCC3)CC2)ccc1O	0.0633
CCOC(=O)c1sc(NC(=O)C(OC(C)=O)c2ccccc2)nc1C (centres undefined)	-0.264
COc1ccc(/C(O)=C2/C(=O)C(=O)N(Cc3cccnc3)C2c2ccncc2)cc1F (centres undefined)	0.137
CC1=NN(c2ccccc2)C(=O)/C1=C\C=C1/N(C)c2ccccc2C1(C)C	-0.533
CC(C)CN(C(=O)COC(=O)c1ccc([N+](=O)[O-])o1)C1CCS(=O)(=O)C1 (centres undefined)	-0.467
CN(C)c1cccc(C(=O)OCC(=O)Nc2ccccc2Sc2ccccc2)c1	-0.208
CC(=O)c1cc(C(c2csc(C(C)=O)c2)c2csc(C(C)=O)c2)cs1	-0.0128
Cc1ccc2c(c1)N(C(=O)CSc1nncn1C)C(C)(C)c1ssc(=S)c1-2	-0.0938
O=c1[nH]c(=O)n(CCc2ccc(F)cc2)c(O)c1C=NCc1ccc2c(c1)OCO2	-0.144
Cc1nn(Cc2n[nH]c(=S)n2Cc2ccccc2)c(C)c1Cl	0.175
Cn1c(=O)c2cc(S(=O)(=O)NCCC(=O)NC3CCCCCC3)ccc2n(C)c1=O	-0.269
O=C1CC(NC23CC4CC(CC(C4)C2)C3)C(=O)N1c1ccc2c(c1)OCO2 (centres undefined)	0.378
COC(=O)c1c(NC(=O)COC(=O)c2ccc(C)s2)sc2c1CCCCC2	0.122
